# Assay results: publication PMC4336329 (PLoS ONE, 2015)
# Hit rate of the full screen: of about 310,000 compounds, about 14,000 (4.5%) showed an effect of 50% or more. The effect is printed as a negative number. The list shows a part of the results.
# Molecular target: human ether-à-go-go-related gene (hERG) potassium channel (human, UniProt Q12809)
# Assay: primary screen, population patch clamp on CHO cells stably expressing hERG
# 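Further: peak tail current of the secondary pulse compared with the same well before compound.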
# human ether-à-go-go-related gene (hERG) potassium channel, sequence (Q12809 whole entry, looked up): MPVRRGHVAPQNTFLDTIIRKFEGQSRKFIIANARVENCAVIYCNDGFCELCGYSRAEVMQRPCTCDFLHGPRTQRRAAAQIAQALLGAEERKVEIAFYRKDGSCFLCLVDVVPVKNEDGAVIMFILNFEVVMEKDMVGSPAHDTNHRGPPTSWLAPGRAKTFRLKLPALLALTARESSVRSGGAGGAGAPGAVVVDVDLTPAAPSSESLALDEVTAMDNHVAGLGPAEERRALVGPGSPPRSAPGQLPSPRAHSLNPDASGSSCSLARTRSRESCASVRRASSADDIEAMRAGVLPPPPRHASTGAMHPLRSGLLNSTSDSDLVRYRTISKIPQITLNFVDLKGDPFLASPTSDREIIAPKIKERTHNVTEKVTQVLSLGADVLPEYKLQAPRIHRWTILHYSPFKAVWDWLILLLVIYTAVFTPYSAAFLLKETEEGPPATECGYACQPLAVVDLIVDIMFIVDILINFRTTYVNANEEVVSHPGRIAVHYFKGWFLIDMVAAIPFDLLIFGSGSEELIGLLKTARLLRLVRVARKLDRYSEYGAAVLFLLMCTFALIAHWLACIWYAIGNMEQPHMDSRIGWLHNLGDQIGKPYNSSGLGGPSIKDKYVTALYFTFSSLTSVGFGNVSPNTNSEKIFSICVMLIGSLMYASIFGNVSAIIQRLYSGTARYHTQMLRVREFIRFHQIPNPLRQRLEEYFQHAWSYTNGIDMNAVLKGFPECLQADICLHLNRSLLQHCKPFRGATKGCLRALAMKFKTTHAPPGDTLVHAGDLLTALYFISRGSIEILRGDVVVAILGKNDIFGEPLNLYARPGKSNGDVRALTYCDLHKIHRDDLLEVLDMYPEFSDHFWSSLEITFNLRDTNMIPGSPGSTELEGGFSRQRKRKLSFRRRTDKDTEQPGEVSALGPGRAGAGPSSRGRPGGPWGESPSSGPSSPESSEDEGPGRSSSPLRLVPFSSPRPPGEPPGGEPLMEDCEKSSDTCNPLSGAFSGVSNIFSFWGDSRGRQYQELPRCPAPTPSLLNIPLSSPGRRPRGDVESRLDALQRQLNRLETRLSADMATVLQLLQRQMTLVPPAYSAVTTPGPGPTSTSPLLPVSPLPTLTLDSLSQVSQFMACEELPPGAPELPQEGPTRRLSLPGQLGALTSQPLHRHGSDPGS
row,Compound,"hERG current change (%, negative = inhibition) at 10uM [%]"
1,CC(C)OCCCNc1ncc2c(n1)CC(c1ccccc1)CC2=O (stereo not drawn),-23.6
2,O=C(O)C1CC(=O)N(Cc2cccs2)C1 (stereo not drawn),24.7
3,CC1(c2nnc(Cc3ccccc3)o2)CC(c2ccc(C#N)cc2)=NO1 (stereo not drawn),-62.3
4,COc1ccc(NC(=O)C/C(C)=N/NC(=O)COc2ccc(OC)cc2)cc1,-18.8
5,CCCC(=O)Nc1ccc(S(=O)(=O)N2CCOCC2)cc1,3.59
6,COc1cccc(C(=O)OCC(=O)c2c(N)n(C)c(=O)n(C)c2=O)c1,-3.46
7,Cc1ccc(OCc2nnc(SCCN3CCOCC3)n2C)cc1.O=C(O)C(=O)O,-6.06
8,COc1ccc(-n2cnnc2SCC(=O)Nc2cccc(S(N)(=O)=O)c2)cc1,10.4
9,Cc1cc(OC(=O)C(C)(C)C)c([N+](=O)[O-])c(=O)[nH]1,19.7
10,COc1ccc(C(=O)NC2CCN(Cc3ccccc3)C2)cc1S(=O)(=O)N1CCOCC1 (stereo not drawn),-8.46
11,O=C(NC1CCCCC1)C(c1ccccn1)N(C(=O)c1csnn1)C1CCCCC1 (stereo not drawn),5.2
12,O=C(CCNS(=O)(=O)c1ccccc1C(F)(F)F)NNC(=O)c1csc(N2CCOCC2)n1,-13.6
13,CS(=O)(=O)N(CC(=O)N1CCCC1)c1ccc2c(c1)OCCO2,-23.7
14,CN(C)S(=O)(=O)c1ccc(C(=O)Nc2ccccc2OC(F)(F)C(F)F)cc1,-16.6
15,Cc1cc(NC(=O)CS(=O)CC(=O)Nc2c(C)cccc2C)ccc1-n1cnnn1 (stereo not drawn),13
16,CCN(CC)S(=O)(=O)c1ccc(OC)c(NC(=O)c2ccc([N+](=O)[O-])cc2)c1,-34.9
17,Cc1ccc(CN2CCN(Cc3cccc(-n4cccn4)c3)CC2CCO)cc1 (stereo not drawn),-74.5
18,Cc1nn(CC(=O)NCc2ccccc2)c(=O)c2cccn12,9.27
19,O=C(CSc1ncnc2c1nnn2-c1ccc(F)cc1)NCC1CCCO1 (stereo not drawn),-12.4

row,Compound,"hERG current change (%, negative = inhibition) at 10uM [%]"
1,Cc1ccc(NC(=O)COC(=O)CCNS(=O)(=O)c2ccc(C)c(C)c2)cc1,-10.9
2,CC1=CC(c2ccccc2)NC(=S)N1 (stereo not drawn),7.74
3,CN1CCN(C(=O)COc2ccc(N(C)S(=O)(=O)c3ccc(F)cc3)cc2)CC1,-4.56
4,COc1ccc(CCNC(=O)c2cnc3ccccn3c2=O)cc1,-22.3
5,CCOc1ccc(-c2c(C(=O)N/N=C(\C)c3ccco3)nnn2-c2nonc2N)cc1,14.6
6,N#CC1(C#N)C(C(=O)C23CC4CC(CC(C4)C2)C3)C12CCOCC2 (stereo not drawn),15.8
7,Cc1cc(NC(=O)/C=C/c2cccc(Cl)c2)n(-c2nc3ccccc3[nH]2)n1,-1.83
8,O=S(=O)(NCc1cc(-c2ccccc2)no1)c1ccc(Cl)cc1,-3.08
9,Cc1cc(C)c(C(=O)Nc2ccc(S(=O)(=O)Nc3ccccn3)cc2)c(C)c1,13
10,COCCN1CCC(CNCc2c(C(=O)N3CCCCC3)nc3c(C)cccn23)C1 (stereo not drawn),-12.7
11,O=C(CCS(=O)(=O)c1ccccc1)OCc1ccc([N+](=O)[O-])cc1,-45
12,CC(=O)N1CCN(CCS(=O)(=O)c2ccc(Br)cc2)CC1,0.779
13,c1ccc(OCc2nn3c(Cn4cnc5ccccc54)nnc3s2)cc1,-28.6
14,CCNC(=O)COc1ccc(CC)cc1,3.94
15,Cc1ccc(S(=O)(=O)N2CCN(Cc3ccsc3)CC2)cc1,-28
16,CCc1ccc(N2CN=c3s/c(=C\c4ccccc4)c(=O)n3C2)cc1,8.48
17,COc1ccc(C(=O)NC(Oc2ccccc2)C(Cl)(Cl)Cl)cc1 (stereo not drawn),16.3
18,COc1ccc(CCN(C)S(=O)(=O)c2ccc(Cl)nc2)cc1OC,-11.3
19,O/N=C/c1cc(Br)ccc1OCc1ccccc1F,6.6

row,Compound,"hERG current change (%, negative = inhibition) at 10uM [%]"
1,CCN(C(=O)CSc1nc2cc(C(=O)O)ccc2c(=O)n1Cc1ccccc1)c1ccccc1,23.9
2,O=C(COC(=O)/C=C/c1ccccc1)NC1CCS(=O)(=O)C1 (stereo not drawn),-23.5
3,Cn1cc(CN2CCCC(C(=O)Nc3cccc(-c4cc5ccccc5[nH]4)c3)C2)cn1 (stereo not drawn),-21.6
4,CC1CN(c2sc(S(C)(=O)=O)nc2S(=O)(=O)c2ccc(Cl)cc2)CC(C)O1 (stereo not drawn),16.1
5,COc1ccccc1OCCSc1nc2ccc([N+](=O)[O-])cc2s1,-2.78
6,CSc1ccccc1C(=O)Nc1nc2ccccc2[nH]1,2.78
7,O=C(CSc1ccccn1)N1CCCC(Nc2ccc(F)c(F)c2)C1 (stereo not drawn),-16.2
8,N#Cc1ccccc1Cn1c(=O)oc2ccccc21,13.3
9,Cc1cc2nccc(-c3ccc(F)cc3)n2n1,11.4
10,O=C1/C(=C\c2ccc(Cl)c(Cl)c2)N2CCC1CC2,-0.482
11,O=S(=O)(c1ccccc1)c1cnc(-c2cccnc2)nc1-c1ccccc1,1.04
12,Brc1c(C[n+]2ccccc2)nc2ccccn12.[Br-],10.8
13,C=CCNS(=O)(=O)c1nc(C)c(Cl)c(C)c1C#N,-2.44
14,Cc1ccc(NCC(=O)Nc2ccc(Br)cc2)cc1C,11
15,CC(C)(C)c1cc(NC(=O)Nc2ccccc2)no1,10.3
16,O=C(NCc1ccccc1CN1CCCC1)C1CCN(S(=O)(=O)c2ccc(F)c(F)c2)CC1,-59.1
17,CNC(=O)c1nn(-c2ccc(Cl)cc2)ccc1=O,9.97
18,CCn1nccc1C(=O)Nc1cccc(C)c1C,4.31
19,CC(=O)Nc1ccccc1C(=O)C(=O)NCCc1ccccc1,-6.79
